From PubChem BioAssay AID1345082 (National Center for Advancing Translational Sciences (NCATS), 2018)
“And” between values parts separate entries of the source, which are not always exact repeats. Identical values can stand only once. Out of some 94,000 compounds screened, about 4,000 (4.3%) were called active. Inconclusive means that the source gave no clear call. Such entries were picked first, then a sample of the others. The call rests on the fitted dose curve; in most records, active means well fitted inhibition curve with a large enough effect; inconclusive means small, poorly fitted or top-dose-only effect; inactive means no such curve, though single readings can be large or run the other way. Where the call is inconclusive, the potency comes from a doubtful curve fit.

Assay: Cytotoxic Profiling in NIH 3T3 Cell Line of Diverse Libraries Using Quantitative High-Throughput Screening; further: nearly all actives have a fitted effect of over 55% in size
Conditions: NIH 3T3 viability, CellTiter-Glo ATP luminescence, 48-72 h; activity change, negative = cytotoxicity: at 96.7 µM (top of the series) unless noted; series mostly up to 96.7 µM
Summary of the method: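 Cytotoxicity is measured as loss of cellular ATP: NIH 3T3 cells (400/well) are exposed to compound for 48 or 72 hr at 37 °C, then CellTiter-Glo luminescence is imaged after 10 min at room temperature.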
On the % scale 0 is the no-effect control and ±100 the full control effect; potency means the concentration at half of the fitted maximal effect; tags describe the fitted curve by direction and shape.

Structure (SMILES) | Potency | activity change, negative = cytotoxicity | outcome
COc1ccc(C(=O)N[C@H]2C[C@@H](Cc3cc(-c4ccccc4)on3)C2(C)C)cc1 | active: 50.1 µM |  | 
COc1cccc(CNC(=O)c2cc(-c3ccc(F)cc3)c3nncn3n2)c1 | inconclusive: 39.8 µM [inhibitor, partial curve] |  | 
O[C@H]1[C@H](NCc2ccc(-c3ccccc3)cc2)[C@H]2CO[C@H](O2)[C@@H]1Sc1ccccc1 | active: 63.1 µM |  | 
O=C(c1cccc(F)c1)N1CCC(Cc2nc(-c3ccccc3)no2)CC1 | inconclusive: 20 µM [inhibitor, partial curve, poor fit] |  | 
CC(C)CNc1nccc(C2(c3ccccc3Cl)CCNCC2)n1 | active: 28.2 µM |  | 
O=C(NCc1ccc2c(c1)OCO2)C1NCCc2[nH]cnc21 (centres undefined) |  | inactive: 2.56% | 
COCCCn1c(C(C)NC(=O)OCc2ccccc2)nc2cccnc21 (centres undefined) | inactive |  | 
O=C(CCC1CCN(C(=O)c2ccccc2)CC1)N1CCC(Cc2ccccc2)CC1 | inconclusive: 56.2 µM [inhibitor, partial curve, poor fit] |  | 
COc1ccc(C(=O)NC2CCN(Cc3cccc(-c4cccc(C)c4)c3)CC2)cc1 | inconclusive: 17.8 µM [inhibitor, full curve, poor fit] |  | 
CN(C)c1nc2c(c(=O)[nH]1)CCN(Cc1cc(F)c(F)c(F)c1)CC2 |  | inactive: -4.97% | 
CCCc1noc(-c2cn(C3CCN(C(=O)c4ccc(C#N)cc4)CC3)nn2)n1 | inconclusive: 44.7 µM [inhibitor, partial curve, poor fit] |  | 
CC(=O)c1cccc(NC(=O)Cn2c(Nc3cc(C)cc(C)c3)nc(C)cc2=O)c1 | inconclusive: 50.1 µM [inhibitor, partial curve, poor fit] |  | 
COCC(=O)N[C@H]1C[C@H]2C(=O)Nc3ccc(/C=C/c4ccccc4)cc3C(=O)N2C1 | inconclusive: 100 µM [inhibitor, partial curve] |  | 
OC(c1nc(Nc2cccc(F)c2)n[nH]1)C1CC1 (centres undefined) | active: 112 µM |  | 
CCNc1ncc(C(=O)N(CCc2ccccc2)Cc2ccco2)cn1 |  | inactive: -1.15% | 
COc1ccc(-c2cccc(C(=O)NC(C)C)c2)nn1 |  | inactive: -20.7% [at 138 µM] | 
CC(=O)Nc1ccc(CNC[C@H]2COCc3nc4ccc(C)cc4n32)cc1 | inconclusive: 79.4 µM [inhibitor, partial curve] |  | 
Cc1ccc(CNC(=O)c2noc(-c3ccc(F)cc3)n2)cc1 | inconclusive: 50.1 µM [inhibitor, single point] |  | 
CC(C)c1nc(Cn2ncc(N3CCOC(CCN)C3)cc2=O)no1 (centres undefined) | inconclusive: 44.7 µM [inhibitor, partial curve] |  | 
CCNc1cc(N2CCC(CCC(=O)Nc3ccc4c(c3)OCCO4)CC2)ncn1 | inconclusive: 44.7 µM [inhibitor, partial curve, poor fit] |  | 
O=C(CNC(=O)c1cccc(-c2ccc(C(F)(F)F)cc2)c1)NCCC1CCCCC1 | active: 22.4 µM |  | 
O=C(Cc1c[nH]c2ncc(-c3ccc(Cl)cc3)cc12)NCc1cccnc1 | inconclusive: 44.7 µM [inhibitor, partial curve, poor fit] |  | 
COc1ccc(N2C(=O)C3(CCCCC3)C2C(=O)NCCCN2CCCCC2)cc1 (centres undefined) |  |  | inactive

Structure (SMILES) | Potency | activity change, negative = cytotoxicity | outcome
Cc1cc(C)c(CNC(=O)c2cc(-c3cccnc3)cc3c2OCCN3C(C)C)c(=O)[nH]1 | inconclusive: 89.1 µM [inhibitor, partial curve, poor fit] |  | 
OCC1(CCCc2ccccc2)CCN(Cc2cccc(-n3cccn3)c2)CC1 | inconclusive: 89.1 µM [inhibitor, single point] |  | 
O=C(O)C1CCc2nc(N3CCN(C(=O)C4CCC4)CC3)sc2C1 (centres undefined) | inconclusive: 44.7 µM [inhibitor, partial curve, poor fit] |  | 
COc1ccc(CC(=O)NC2CCN(c3cc(-c4ccc(Cl)cc4)[nH]n3)CC2)cc1OC | inconclusive: 20 µM [inhibitor, full curve] |  | 
O=C1[C@H]2CN(Cc3ccccc3Br)C[C@H]2C(=O)N1Cc1ccc2c(c1)OCO2 | inconclusive: 50.1 µM [inhibitor, single point] |  | 
O=C1CCN(Cc2cccnc2)CCCC(C(=O)NCCC2=CCCCC2)CCN1 (centres undefined) |  | inactive: -3.73% | 
O=C(NCc1ccccc1)C1CCN(c2cnc3nccnc3c2)CC1 | inconclusive: 70.8 µM [inhibitor, single point] |  | 
CN(C)c1cccc(C(=O)NC2CCCN(c3cc(-c4ccc(Cl)cc4)[nH]n3)C2)c1 (centres undefined) | inconclusive: 44.7 µM [inhibitor, partial curve, poor fit] |  | 
COc1ccc(F)cc1-c1ccc(CN2CCC(N[S+](=O)([O-])c3ccc(C)cc3)C2)cc1 (centres undefined) | active: 28.2 µM |  | 
CCOc1ccc(-c2cc3c(=O)n(CCNC(=O)c4ccccc4OC)ccn3n2)cc1 |  |  | inactive
CCOCC1(C)COc2ccc(C(=O)Nc3cccc(N(C)C)c3)cc2N1 (centres undefined) | inconclusive: 112 µM [inhibitor, partial curve, poor fit] |  | 
CS(=O)(=O)N(Cc1ccccn1)C1CN(C(=O)CCc2c[nH]c3ccccc23)C1 |  | inactive: -17.1% | 
COc1ccc(N2CC(c3noc(-c4ccccc4F)n3)CC2=O)cc1OC (centres undefined) |  | inactive: -15% | 
CC(C)Oc1cccc2c1c(NC(=O)C1CCN(C)C1)nn2Cc1ccccc1 (centres undefined) | inconclusive: 89.1 µM [inhibitor, partial curve, poor fit] |  | 
Cc1ccc(S(=O)(=O)N2CCC(OC3CCN(Cc4ccccc4)CC3)CC2)cc1C | active: 35.5 µM |  | 
O=C(c1ccc(Cl)nc1)N1CCC2(C1)C(=O)N(CCc1ccccc1)c1ccccc12 (centres undefined) | inconclusive: 50.1 µM [inhibitor, partial curve, poor fit] and inconclusive: 44.7 µM [inhibitor, partial curve, poor fit] |  | 
CCCN(CC1CCOC1)C(=O)Nc1ccc(Br)cc1 (centres undefined) |  | inactive: -2.13% | 
O=C(CC1CCCC1)N1CCC2(CC1)C(=O)N(c1cccc(F)c1)C2c1ccccc1 (centres undefined) | inconclusive: 50.1 µM [inhibitor, partial curve, poor fit] |  | 
CCc1ccc(NC(=O)Cn2c(-c3ccccc3)nc(C)c(CCO)c2=O)cc1 | active: 39.8 µM |  | 
COc1cc(OC)c(NC(=O)N2c3ccccc3CC2c2nc(C3CC3)no2)cc1Cl (centres undefined) |  | inactive: -4.24% | 
COc1cc(-c2cc3c(nc2-c2ccccc2)nc(C(=O)NCCN(C)C)n3C)ccn1 | inconclusive: 89.1 µM [inhibitor, partial curve, poor fit] |  | 
COc1ccc2c(c1)OCC(C(=O)NCCNc1cc(C)ccn1)C2 (centres undefined) | active: 79.4 µM |  | 
O=C1CCN(Cc2ccc(F)cc2F)CCCC(c2nc(-c3cccnc3)no2)CCN1 (centres undefined) | inconclusive: 39.8 µM [inhibitor, partial curve, poor fit] |  | 

Structure (SMILES) | Potency | activity change, negative = cytotoxicity | outcome
O=C(Nc1cccc(Cl)c1)N1CCCCC1c1noc(COCC2CC2)n1 (centres undefined) | inconclusive: 50.1 µM [inhibitor, partial curve, poor fit] |  | 
COC[C@@H]1CN(C(=O)c2cc(F)ccc2F)C[C@H]1c1ccncc1 |  | inactive: -22.2% | 
COCCNC(=O)c1ccc2nccn2c1 |  |  | inactive [at 174 µM]
Cc1ccc(CCN2CCC3(Cc4ccccc4CN([S+](C)(=O)[O-])C3)C2)cc1 (centres undefined) |  | inactive: -29.6% | 
CN1CCN(c2cc(-c3ccc(F)cc3C(F)(F)F)nc(N)n2)CC1 |  |  | inactive
CN1C(=O)CC(C(=O)O)C12CCN(Cc1cccc(C(=O)O)n1)CC2 (centres undefined) |  | inactive: -5.67% | 
FC(F)(F)c1ccnc(-c2cc(NCc3ccccn3)nc3[nH]ccc23)c1 | inconclusive: 79.4 µM [inhibitor, single point] |  | 
COc1ccc(-c2cc(C(=O)N3CCC(c4ccccc4)CC3)c3cnn(C)c3n2)cc1 | inconclusive: 31.6 µM [inhibitor, full curve, poor fit] |  | 
Cc1ccc(-c2nc(C(=O)NCc3cccc(C)c3)no2)cc1 | inconclusive: 50.1 µM [inhibitor, partial curve, poor fit] |  | 
CCc1ccc(CNC(=O)c2cc3c(N4CCCC4)nc(C)cn3n2)cc1 | inconclusive: 50.1 µM [inhibitor, single point] |  | 
O=C(c1ccc(Cl)nc1)N1CCCN(c2ccc3nnc(C4CC4)n3n2)CC1 |  | inactive: -0.0452% | 
O=C(NC1CCN(Cc2cccc(-c3cccs3)c2)CC1)c1ccc(Cl)cc1 | inactive |  | 
COc1cccc([S+](=O)([O-])N2CCCC3(COc4ccccc4C(=O)N3)C2)c1 (centres undefined) | inconclusive: 22.4 µM [inhibitor, full curve] |  | 
COc1ccc(C(=O)N2CCc3ccc(C(=O)NCc4cccs4)cc32)cc1 | inconclusive: 70.8 µM [inhibitor, single point] |  | 
CNC(=O)c1cn2c(n1)CN(C(C)=O)CC2 |  |  | inactive [at 174 µM]
O=C1NC(=NC2CCCCC2)C2(CCN(Cc3ccccc3)CC2)N1c1cccnc1 |  | inactive: -0.917% | 
O=C(Cn1nc2c(cc1=O)CCCCC2)NCc1nc2ccccc2[nH]1 |  | inactive: 3.7% | 
COc1cc(NC(=O)CN2C(=O)NC3(CCCCC3)C2=O)cc(OC)c1 |  | inactive: -15.3% | 
COc1cccc(-c2nc3cc4c(cc3cc2CN2CCCOCC2)OCO4)c1OC | inconclusive: 79.4 µM [inhibitor, partial curve] |  | 
COCCNC(=O)c1coc(COc2ccc3c(c2)C(c2ccc(F)cc2)N(C(=O)C(C)C)CC3)n1 (centres undefined) |  | inactive: -28.4% | 
CC(C)c1ccc(S(=O)(=O)N(C)CC2CCOC2)cc1 (centres undefined) | inconclusive: 56.2 µM [inhibitor, partial curve, poor fit] |  | 
O=C(NCCc1ccccc1F)c1ccc2nnc(C3CCCC3)n2c1 | inconclusive: 44.7 µM [inhibitor, partial curve, poor fit] |  | 
CCOc1ccc(CN2C(=O)C3(CCOCC3)CC2c2nnnn2C(C)(C)C)cc1OC (centres undefined) |  | inactive: -9.49% | 
